Test results reported in patent US20240209078A1 (Amgen, published 2024).
Blank lines part the entries; values can stand above or below the binder they belong to.

Columns and labels:
Assay in all cases: cell-based or functional assay
[1] = target: T1, human CDH3 (Cadherin-3, P-Cadherin) (human, UniProt P22223 108-829)
human MSLN (mesothelin) [2] = target: T2, human MSLN (mesothelin) (human, UniProt Q13421 37-598)
[3] = target: T1, human CDH3 (Cadherin-3, P-Cadherin); remark: listed apart in the source
human MSLN (mesothelin) [4] = target: T2, human MSLN (mesothelin); remark: listed apart in the source
human MSLN = human MSLN (human, UniProt Q13421 37-598)
human CDH3 = human CDH3 (human, UniProt P22223 108-829)
human CD3ε chain = human CD3ε chain (human, UniProt P07766)
Chain of human CD3ε chain (P07766 23-207 limits assumed): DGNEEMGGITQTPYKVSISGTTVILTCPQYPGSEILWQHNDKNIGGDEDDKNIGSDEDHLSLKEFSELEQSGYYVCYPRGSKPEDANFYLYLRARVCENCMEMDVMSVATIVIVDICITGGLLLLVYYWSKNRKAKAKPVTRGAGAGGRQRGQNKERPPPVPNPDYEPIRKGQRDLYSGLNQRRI

fold selectivity gap, GSU KO CDH3 against GSU wt (human MSLN): 18 fold | fold selectivity gap, GSU KO MSLN against GSU wt (human CDH3): 16 fold | Activity reduction of single CD3 binding domain in molecule (I2M2) compared to high affinity binding domain I2C (human CD3ε chain): ~32 fold
B2: MS 15-B12 CC × I2M2 × scFc × CH3 15-E11 CC × I2M2 (bispecific antibody)
chain: QVQLQESGPGLVKPSETLSLTCTVSGGSISSSSYFWGWIRQPPGKCLEWIGNIYYSGSSNYNPSLKSRVTISVDTSKNQFSLKLSSVTAADTAVYYCARLPRGDRDAFDIWGQGTMVTVSSGGGGSGGGGSGGGGSDIVMTQSPSSLSASVGDRVTITCRASQGISNYLAWYQQKPGKVPKLLIYAASTLQSGVPSRFSGSGSGTDFTLTISSLQPEDFATYYCQQSYSTPFTFGCGTKVEIKSGGGGSEVQLVESGGGLVQPGGSLKLSCAASGFTFNKYAINWVREAPGKGLEWVARIRSKYNNYATYYADAVKDRFTISRDDSKNTAYLQMNNLKTEDTAVYYCVRNANFGTSYISYFAYWGQGTLVTVSSGGGGSGGGGSGGGG[sequence of about 120 residues omitted]GGGSGGGGSGGGGS[sequence of human IgG1 Fc with R292C N297G V302C (EU numbers) omitted]GGGGSGGGGSGGGGSGGGGSGGGGSGGGGS[sequence of human IgG1 Fc with R292C N297G V302C (EU numbers) omitted]GGGGSGGGGSGGGGSQVQLVQSGAEVKKPGASVKVSCKASGYTFTNYWMNWVRQAPGQCLEWMGNIAYGVKGTNYNQKFQGRVTMTVDTSSSTAYMELSRLRSDDTAVYYCATRYFYVMDYWGQGTLVTVSSGGGGSGGGGSGGGGSDIQMTQSPSSLSASVGDRVTITCRASQDISNYLNWYQQKPGKVPKLLIYYTSRLHSGVPSRFSGSGSGTDFTLTISSLQPEDVATYYCVQYAQFPLTFGCGTKVEIKSGGGGSEVQLVESGGGLVQPGGSLKLSCAASGFTFNKYAINWVREAPGKGLEWVARIRSKYNNYATYYADAVKDRFTISRDDSKNTAYLQMNNLKTEDTAVYYCVRNANFGTSYISYFAYWGQGTLVTVSSGGGGSGGGGSGGGG[sequence of about 120 residues omitted]
EC50 GSU KO CDH3 (cytotoxicity; cells CDH3-, MSLN+) (human MSLN): 2 pM | EC50 GSU wt (cytotoxicity; cells CDH3+, MSLN+) (human MSLN): 0.11 pM | EC50 GSU KO MSLN (cytotoxicity; cells CDH3+, MSLN-) (human CDH3): 1.7 pM | EC50 GSU wt (cytotoxicity; cells CDH3+, MSLN+) (human CDH3): 0.11 pM

fold selectivity gap, GSU KO CDH3 against GSU wt (human MSLN): 58 fold | fold selectivity gap, GSU KO MSLN against GSU wt (human CDH3): 284 fold | Activity reduction of single CD3 binding domain in molecule (first named: I2M2) compared to high affinity binding domain I2C (human CD3ε chain): ~32 fold | Activity reduction of single CD3 binding domain in molecule (second named: I2L) compared to high affinity binding domain I2C (human CD3ε chain): ~98 fold
B3: MS 15-B12 CC × I2M2 × scFc × CH3 15-E11 CC × I2L (bispecific antibody)
chain: QVQLQESGPGLVKPSETLSLTCTVSGGSISSSSYFWGWIRQPPGKCLEWIGNIYYSGSSNYNPSLKSRVTISVDTSKNQFSLKLSSVTAADTAVYYCARLPRGDRDAFDIWGQGTMVTVSSGGGGSGGGGSGGGGSDIVMTQSPSSLSASVGDRVTITCRASQGISNYLAWYQQKPGKVPKLLIYAASTLQSGVPSRFSGSGSGTDFTLTISSLQPEDFATYYCQQSYSTPFTFGCGTKVEIKSGGGGSEVQLVESGGGLVQPGGSLKLSCAASGFTFNKYAINWVREAPGKGLEWVARIRSKYNNYATYYADAVKDRFTISRDDSKNTAYLQMNNLKTEDTAVYYCVRNANFGTSYISYFAYWGQGTLVTVSSGGGGSGGGGSGGGG[sequence of about 120 residues omitted]GGGSGGGGSGGGGS[sequence of human IgG1 Fc with R292C N297G V302C (EU numbers) omitted]GGGGSGGGGSGGGGSGGGGSGGGGSGGGGS[sequence of human IgG1 Fc with R292C N297G V302C (EU numbers) omitted]GGGGSGGGGSGGGGSQVQLVQSGAEVKKPGASVKVSCKASGYTFTNYWMNWVRQAPGQCLEWMGNIAYGVKGTNYNQKFQGRVTMTVDTSSSTAYMELSRLRSDDTAVYYCATRYFYVMDYWGQGTLVTVSSGGGGSGGGGSGGGGSDIQMTQSPSSLSASVGDRVTITCRASQDISNYLNWYQQKPGKVPKLLIYYTSRLHSGVPSRFSGSGSGTDFTLTISSLQPEDVATYYCVQYAQFPLTFGCGTKVEIKSGGGGSEVQLVESGGGLVQPGGSLKLSCAASGFTFNKYAMNWVRQAPGKGMEWVARIRSKYNNYATYYADAVKDRFTISRDDSKNTLYLQMNNLKTEDTAVYYCVRAGNFGSSYISYFAYWGQGTLVTVSSGGGGSGGGGSGGGGSQTVVTQEPSLTVSPGGTVTITCGSSTGAVTSGNYPNWIQKKPGQAPRGLIGGTKFLAPGTPARFSGSLEGGKAALTLSGVQPEDEAEYYCVLYYSNRWVFGSGTKLTVL
EC50 GSU KO CDH3 (cytotoxicity; cells CDH3-, MSLN+) (human MSLN): 2.6 pM | EC50 GSU wt (cytotoxicity; cells CDH3+, MSLN+) (human MSLN): 0.04 pM | EC50 GSU KO MSLN (cytotoxicity; cells CDH3+, MSLN-) (human CDH3): 12.7 pM | EC50 GSU wt (cytotoxicity; cells CDH3+, MSLN+) (human CDH3): 0.04 pM

More lines, now with the values behind:

B1: MS 15-B12 CC × I2M2 × (G4S)3 × scFc × (G4S)3 × CH3 15-E11 CC × I2M2 (bispecific antibody)
chain: QVQLQESGPGLVKPSETLSLTCTVSGGSISSSSYFWGWIRQPPGKCLEWIGNIYYSGSSNYNPSLKSRVTISVDTSKNQFSLKLSSVTAADTAVYYCARLPRGDRDAFDIWGQGTMVTVSSGGGGSGGGGSGGGGSDIVMTQSPSSLSASVGDRVTITCRASQGISNYLAWYQQKPGKVPKLLIYAASTLQSGVPSRFSGSGSGTDFTLTISSLQPEDFATYYCQQSYSTPFTFGCGTKVEIKSGGGGSEVQLVESGGGLVQPGGSLKLSCAASGFTFNKYAINWVREAPGKGLEWVARIRSKYNNYATYYADAVKDRFTISRDDSKNTAYLQMNNLKTEDTAVYYCVRNANFGTSYISYFAYWGQGTLVTVSSGGGGSGGGGSGGGG[sequence of about 120 residues omitted]GGGSGGGGSGGGGS[sequence of human IgG1 Fc with R292C N297G V302C (EU numbers) omitted]GGGGSGGGGSGGGGSGGGGSGGGGSGGGGS[sequence of human IgG1 Fc with R292C N297G V302C (EU numbers) omitted]GGGGSGGGGSGGGGSQVQLVQSGAEVKKPGASVKVSCKASGYTFTNYWMNWVRQAPGQCLEWMGNIAYGVKGTNYNQKFQGRVTMTVDTSSSTAYMELSRLRSDDTAVYYCATRYFYVMDYWGQGTLVTVSSGGGGSGGGGSGGGGSDIQMTQSPSSLSASVGDRVTITCRASQDISNYLNWYQQKPGKVPKLLIYYTSRLHSGVPSRFSGSGSGTDFTLTISSLQPEDVATYYCVQYAQFPLTFGCGTKVEIKSGGGGSEVQLVESGGGLVQPGGSLKLSCAASGFTFNKYAINWVREAPGKGLEWVARIRSKYNNYATYYADAVKDRFTISRDDSKNTAYLQMNNLKTEDTAVYYCVRNANFGTSYISYFAYWGQGTLVTVSSGGGGSGGGGSGGGG[sequence of about 120 residues omitted]
cytotoxicity EC50, GSU KO MSLN cells [1]: 7.9 pM | cytotoxicity EC50, GSU KO CDH3 cells (human MSLN (mesothelin) [2]): 69.9 pM | cytotoxicity EC50, HCT 116 KO MSLN cells [3]: 0.2 pM | cytotoxicity EC50, HCT 116 KO CDH3 cells (human MSLN (mesothelin) [4]): 0.69 pM

B4: MS 15-B12 CC × I2L × scFc × CH3 15-E11 CC × I2M2 (bispecific antibody)
chain: QVQLQESGPGLVKPSETLSLTCTVSGGSISSSSYFWGWIRQPPGKCLEWIGNIYYSGSSNYNPSLKSRVTISVDTSKNQFSLKLSSVTAADTAVYYCARLPRGDRDAFDIWGQGTMVTVSSGGGGSGGGGSGGGGSDIVMTQSPSSLSASVGDRVTITCRASQGISNYLAWYQQKPGKVPKLLIYAASTLQSGVPSRFSGSGSGTDFTLTISSLQPEDFATYYCQQSYSTPFTFGCGTKVEIKSGGGGSEVQLVESGGGLVQPGGSLKLSCAASGFTFNKYAMNWVRQAPGKGMEWVARIRSKYNNYATYYADAVKDRFTISRDDSKNTLYLQMNNLKTEDTAVYYCVRAGNFGSSYISYFAYWGQGTLVTVSSGGGGSGGGGSGGGGSQTVVTQEPSLTVSPGGTVTITCGSSTGAVTSGNYPNWIQKKPGQAPRGLIGGTKFLAPGTPARFSGSLEGGKAALTLSGVQPEDEAEYYCVLYYSNRWVFGSGTKLTVLGGGGSGGGGSGGGGS[sequence of human IgG1 Fc with R292C N297G V302C (EU numbers) omitted]GGGGSGGGGSGGGGSGGGGSGGGGSGGGGS[sequence of human IgG1 Fc with R292C N297G V302C (EU numbers) omitted]GGGGSGGGGSGGGGSQVQLVQSGAEVKKPGASVKVSCKASGYTFTNYWMNWVRQAPGQCLEWMGNIAYGVKGTNYNQKFQGRVTMTVDTSSSTAYMELSRLRSDDTAVYYCATRYFYVMDYWGQGTLVTVSSGGGGSGGGGSGGGGSDIQMTQSPSSLSASVGDRVTITCRASQDISNYLNWYQQKPGKVPKLLIYYTSRLHSGVPSRFSGSGSGTDFTLTISSLQPEDVATYYCVQYAQFPLTFGCGTKVEIKSGGGGSEVQLVESGGGLVQPGGSLKLSCAASGFTFNKYAINWVREAPGKGLEWVARIRSKYNNYATYYADAVKDRFTISRDDSKNTAYLQMNNLKTEDTAVYYCVRNANFGTSYISYFAYWGQGTLVTVSSGGGGSGGGGSGGGG[sequence of about 120 residues omitted]
EC50 GSU KO CDH3 (cytotoxicity; cells CDH3-, MSLN+) (human MSLN): 6 pM | EC50 GSU wt (cytotoxicity; cells CDH3+, MSLN+) (human MSLN): 0.48 pM | fold selectivity gap, GSU KO CDH3 against GSU wt (human MSLN): 13 fold | EC50 GSU KO MSLN (cytotoxicity; cells CDH3+, MSLN-) (human CDH3): 10.6 pM | EC50 GSU wt (cytotoxicity; cells CDH3+, MSLN+) (human CDH3): 0.48 pM | fold selectivity gap, GSU KO MSLN against GSU wt (human CDH3): 22 fold | Activity reduction of single CD3 binding domain in molecule (first named: I2L) compared to high affinity binding domain I2C (human CD3ε chain): ~98 fold | Activity reduction of single CD3 binding domain in molecule (second named: I2M2) compared to high affinity binding domain I2C (human CD3ε chain): ~32 fold
